Screen size: about 230,000 compounds; about 3,600 (1.6%) were called active. This list was built around the results that the source calls inconclusive (neither active nor inactive); the mix of calls is not that of the screen. The call rests on the fitted dose curve; in most records, active means well fitted inhibition curve with a large enough effect (not every such curve was filed as active); inconclusive means small, poorly fitted or top-dose-only effect, or another doubt; inactive means no such curve, though single readings can be large or run the other way. Where the call is inconclusive, the potency comes from a doubtful curve fit.
The molecules below were run against Lysine-specific demethylase 4E (Homo sapiens) (UniProt B2RXH2) (assay: qHTS Assay for Inhibitors of Human Jumonji Domain Containing 2E (JMJD2E)). Conditions: JMJD2E catalytic domain, FDH-coupled NADH fluorescence (FDH is formaldehyde dehydrogenase); series mostly up to 57.1 µM; activity change, negative = inhibition: at the top concentration.
Sequence of UniProt B2RXH2 (B2RXH2 whole entry, looked up, the tested form may be a part): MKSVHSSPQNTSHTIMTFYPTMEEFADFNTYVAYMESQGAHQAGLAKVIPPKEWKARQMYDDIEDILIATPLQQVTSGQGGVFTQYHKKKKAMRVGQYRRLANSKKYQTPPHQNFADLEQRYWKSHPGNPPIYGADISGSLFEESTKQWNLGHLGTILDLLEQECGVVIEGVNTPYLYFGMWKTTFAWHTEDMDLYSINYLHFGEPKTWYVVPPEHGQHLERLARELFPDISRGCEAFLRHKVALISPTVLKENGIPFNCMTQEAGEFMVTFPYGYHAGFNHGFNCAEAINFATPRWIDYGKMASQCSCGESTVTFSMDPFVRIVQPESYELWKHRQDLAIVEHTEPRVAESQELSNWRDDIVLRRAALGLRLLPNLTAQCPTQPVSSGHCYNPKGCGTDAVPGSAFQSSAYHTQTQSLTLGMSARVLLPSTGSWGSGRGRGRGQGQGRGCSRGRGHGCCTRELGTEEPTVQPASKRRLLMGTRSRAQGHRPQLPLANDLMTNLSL
In the case of CCOC(=O)C1=C(C)N(C)C(=O)NC1c1cc2c(cc1[N+](=O)[O-])OCO2 (stereo not drawn), the Potency was inconclusive: 12.6 µM [inhibitor, partial curve]. Cc1cc(=O)[nH]c(-c2ccc(Cl)cc2)n1 was tested, and the “activity change, negative = inhibition” value was inactive: -0.301%. For Cc1nc2ncccn2c1-c1csc(Nc2ccccc2)n1, the Potency was inconclusive: 39.8 µM [inhibitor, single point]. For CC(=O)Nc1ccc(S(=O)(=O)Nc2nc3ccccc3nc2N2CCCC2)cc1, the “activity change, negative = inhibition” value was inactive: -20.6%. For COc1ccc(NC(=O)c2cc(S(=O)(=O)N3CCCCC3)ccc2N2CCCCC2)cn1, the Potency was inconclusive: 39.8 µM [inhibitor, single point]. Cc1ccccc1N1C(=O)c2cc(S(N)(=O)=O)c(Cl)cc2N[C@H]1C was tested, and the Potency was inconclusive: 12.6 µM [inhibitor, partial curve]. With Cc1ccc(C=Nc2ccccc2C(N)=O)cc1 the Potency was inconclusive: 35.5 µM [inhibitor, partial curve]. Cc1cc(C)c(C#N)c(SCc2ccccc2[N+](=O)[O-])n1 was tested, and the “activity change, negative = inhibition” value was inactive: -8.8%. For COC(=O)c1nc2ccc(C)cn2c1F, the Potency was inconclusive: 25.1 µM [inhibitor, single point]. In the case of COc1cc2c(cc1OC)C1(Nc3c-2c(-c2ccccc2)nn3-c2ccccc2)C(=O)Nc2ccccc21 (stereo not drawn), the “activity change, negative = inhibition” value was inactive: 2.17%. COc1ccc2c3c(cccc13)OCC2=O was tested, and the Potency was inconclusive: 20 µM [inhibitor, single point]. For O=C(C[n+]1ccc(/C=C/c2ccccc2)cc1)c1ccc2c(c1)OCCO2, the Potency was inconclusive: 35.5 µM [inhibitor, single point]. CCn1c(=N)n(CC(=O)C23CC4CC(CC(C4)C2)C3)c2ccccc21 was tested, and the Potency was inconclusive: 22.4 µM [inhibitor, single point]. With CC(=O)n1cc(Nc2ccc([N+](=O)[O-])cc2)c2ccccc21 the Potency was inconclusive: 25.1 µM [inhibitor, partial curve]. For CCN1CCCC1CN(Cc1cc2cc(OC)ccc2[nH]c1=O)C(=O)NCc1ccccc1 (stereo not drawn), the Potency was inconclusive: 28.2 µM [inhibitor, partial curve]. For c1ccc(Nc2nnc(SCc3cccc4ccccc34)s2)cc1, the “activity change, negative = inhibition” value was inactive: -4.72%. For COC(=O)CSC1=C(C#N)C(=O)NC(c2ccccc2)S1 (stereo not drawn), the Potency was inconclusive: 39.8 µM [inhibitor, single point]. For Cc1ccc(/C=C/C(=O)N2CCC(Cc3ccccc3)CC2)cc1, the Potency was inconclusive: 35.5 µM [inhibitor, single point]. COc1ccc(-c2cc(NCCc3ccncc3)n3ncnc3n2)cc1 was tested, and the Potency was inconclusive: 22.4 µM [inhibitor, partial curve]. With Cc1ccc(C(C(=O)NCc2ccco2)N(Cc2ccco2)C(=O)CNC(=O)c2ccco2)cc1 (stereo not drawn) the Potency was inconclusive: 39.8 µM [inhibitor, single point]. CSc1c(SCc2ccccc2)cnn(Cc2ccccc2)c1=O was tested, and the Potency was active: 12.6 µM. In the case of O=c1[nH]c2ccccc2nc1Cc1ccccc1, the Potency was inconclusive: 25.1 µM [inhibitor, partial curve]. In the case of COc1ccc(CNC(=S)N2CCN(Cc3ccccc3)CC2)cc1, the Potency was inconclusive: 39.8 µM [inhibitor, single point]. For O=C(OCc1ccccc1)c1cccc(-c2nnc(-c3ccccc3)o2)c1, the Potency was inconclusive: 35.5 µM [inhibitor, single point]. c1ccc2c(c1)[nH]c1c(NCC3CCCO3)ncnc12 (stereo not drawn) was tested, and the Potency was inconclusive: 22.4 µM [inhibitor, partial curve]. For Cc1cccc(C(=O)NC2=NCCS2)c1, the Potency was inconclusive: 0.0398 µM [inhibitor, full curve, poor fit]. For O=C(Nc1ccc2oc(-c3ccccc3)nc2c1)c1ccco1, the Potency was inconclusive: 31.6 µM [inhibitor, single point]. For CC1C/C(=C/c2cccs2)C(=O)/C(=C/c2cccs2)C1 (stereo not drawn), the “activity change, negative = inhibition” value was inactive: 8.67%. With COC(=O)c1c(NC(=O)C2CC2)sc2c1CCCC2 the Potency was inconclusive: 39.8 µM [inhibitor, single point]. With CN(C)c1ccc(/C=N/NC(=O)c2nnn(-c3nonc3N)c2COc2ccc(F)cc2)cc1 the Potency was inconclusive: 35.5 µM [inhibitor, single point]. In the case of Cc1cc(=O)oc2cc(OCC(=O)OCC(=O)NCc3ccc4c(c3)OCO4)ccc12, the Potency was inconclusive: 31.6 µM [inhibitor, single point]. In the case of CCOc1ccccc1C(=O)OCC(=O)Nc1ccc(N2CCCCC2)cc1, the “activity change, negative = inhibition” value was inactive: -9.23%. For CCCCN1CCc2c([nH]c3ccccc23)C1=O, the Potency was inconclusive: 31.6 µM [inhibitor, partial curve]. With CCCc1nc2oc3cc(OC)ccc3c(=O)c2c(=O)n1Cc1ccco1 the “activity change, negative = inhibition” value was inactive: -17.5%. CCn1c2ccccc2c2cc(NC(=O)c3ccc(=O)oc3)ccc21 was tested, and the Potency was inconclusive: 28.2 µM [inhibitor, partial curve]. In the case of O=C(O)/C=C\C(=O)Nc1ccc(N2CCN(c3ccc(F)cc3)CC2)cc1, the “activity change, negative = inhibition” value was inactive: 1.59%. For CC(=O)Nc1ccc(CN2CCN(c3cccc(C(F)(F)F)c3)CC2)cc1, the Potency was inconclusive: 39.8 µM [inhibitor, single point]. In the case of CC(C)C(=O)Nc1ccc2nn(-c3ccccc3)nc2c1, the Potency was inconclusive: 28.2 µM [inhibitor, partial curve]. With O=C(Nc1ccc(F)cc1F)Nc1ccc(F)cc1F the “activity change, negative = inhibition” value was inactive: 3.4%. CCn1c(SCC(=O)c2ccccc2)nc2c(c1=O)SC(C)C2 (stereo not drawn) was tested, and the Potency was inconclusive: 39.8 µM [inhibitor, single point]. In the case of CCCn1c(-c2ccc(F)cc2)nc2c(NCCN(CC)CC)nc(C)nc21, the Potency was inconclusive: 25.1 µM [inhibitor, partial curve]. COC(=O)c1cc(NCc2ccc3c(c2)OCO3)ccc1N1CCOCC1 was tested, and the “activity change, negative = inhibition” value was inactive: -21.3%. With Cc1ncc(CO)c(CO)c1O the Potency was inconclusive: 12.6 µM [inhibitor, partial curve]. With C=CCc1ccccc1OCC(O)CNC (stereo not drawn) the “activity change, negative = inhibition” value was inactive: 14.7%. With CN(C)CCCOC(=O)COc1ccc(Br)cc1 the “activity change, negative = inhibition” value was inactive: -9.7%. In the case of Oc1ccc(-c2csc(Nc3ncccn3)n2)cc1, the “activity change, negative = inhibition” value was inactive: 4.99%. For O=C(CSC1=NCCS1)Nc1cccc2ccccc12, the “activity change, negative = inhibition” value was inactive: -9.05%. In the case of COc1ccccc1CC(=O)Nc1ccc(Cl)cc1C(=O)O, the Potency was inconclusive: 28.2 µM [inhibitor, single point]. For Cc1cc(C)c2c(N)c(C(=O)N/N=C/c3ccccc3)sc2n1, the Potency was inconclusive: 31.6 µM [inhibitor, partial curve]. COc1ccc(/C=C/C(=O)OCc2cc(=O)n3c(n2)sc2ccccc23)cc1 was tested, and the “activity change, negative = inhibition” value was inactive: 51.2%. In the case of O=C(NC1CCCCCC1)C1CCC(CNS(=O)(=O)c2ccc(Br)s2)CC1 (stereo not drawn), the “activity change, negative = inhibition” value was inactive: -3.9%. Cc1cc2nc(-c3ccc(SCc4ccccn4)nc3)[nH]c2cc1C was tested, and the Potency was inconclusive: 11.2 µM [inhibitor, partial curve]. CC1CCC(NC(=O)CC(C)(C)Cc2nc3ccccc3c(=O)[nH]2)CC1 (stereo not drawn) was tested, and the Potency was inconclusive: 35.5 µM [inhibitor, single point]. In the case of CC(C)COc1ccc(C(=O)Nc2ccc(SC(F)F)cc2)cc1, the “activity change, negative = inhibition” value was inactive: -8.47%. For Nc1ccc2nc(-c3ccccc3)[nH]c2c1, the Potency was inconclusive: 28.2 µM [inhibitor, partial curve]. Cc1cccc(C)c1NC(=O)CN(C)CC(=O)Nc1cc(Cl)ccc1C#N was tested, and the Potency was inconclusive: 28.2 µM [inhibitor, partial curve]. With CCOC(=O)c1c(C)[nH]c(C(=O)OCC(=O)N2CCN(S(=O)(=O)c3ccccc3)CC2)c1C the “activity change, negative = inhibition” value was inactive: -0.739%. O=C(NCc1ccco1)C(=O)NCC1OCCN1S(=O)(=O)c1ccccc1 (stereo not drawn) was tested, and the “activity change, negative = inhibition” value was inactive: -10.3%. O=C(/C=C/Nc1cccc([N+](=O)[O-])c1)c1cccs1 was tested, and the “activity change, negative = inhibition” value was inactive: -5.51%. For CCC(SC1=Nc2ccccc2C2=NC(CC(C)C)C(=O)N12)C(=O)Nc1ccc2c(c1)OCO2 (stereo not drawn), the Potency was inconclusive: 35.5 µM [inhibitor, single point]. With Cc1cc(C)n2c(Br)c(CSc3nc4ccccc4s3)nc2n1 the Potency was inconclusive: 35.5 µM [inhibitor, single point]. With COc1ccc(C2C=C(c3ccc(C)c(C)c3)Nc3ncnn32)c(OC)c1OC (stereo not drawn) the Potency was inconclusive: 39.8 µM [inhibitor, single point]. Brc1ccccc1-c1nnc2sc(Cc3ccccc3)nn12 was tested, and the “activity change, negative = inhibition” value was inactive: 5.5%. In the case of O=[N+]([O-])c1ccc(C=Nc2cccc3ccccc23)s1, the Potency was inconclusive: 28.2 µM [inhibitor, partial curve]. With COc1cc(NC(=O)c2ccc3c(c2)OCO3)ccc1NC(=O)C(C)C the “activity change, negative = inhibition” value was inactive: 2.42%. For CC(=O)OCCNc1cc(Sc2nc3ccccc3[nH]2)c2nonc2c1[N+](=O)[O-], the “activity change, negative = inhibition” value was inactive: 0.885%. Nc1c(C(O)(C(F)(F)F)C(F)(F)F)cc(C(O)(C(F)(F)F)C(F)(F)F)c2ccccc12 was tested, and the Potency was inconclusive: 39.8 µM [inhibitor, single point]. In the case of Cc1cc2cc(CN(Cc3ccco3)C(=S)NCC3CCCO3)c(=O)[nH]c2cc1C (stereo not drawn), the Potency was inconclusive: 28.2 µM [inhibitor, partial curve]. COc1ccc(NC(=O)c2ccccc2)cc1NS(=O)(=O)c1ccc(F)cc1 was tested, and the Potency was inconclusive: 35.5 µM [inhibitor, single point]. In the case of Nc1cccc(Nc2ccccc2)c1, the Potency was inconclusive: 31.6 µM [inhibitor, single point]. With O=C(c1ccco1)N1CCN(c2ncnc3c2[nH]c2ccccc23)CC1 the Potency was inconclusive: 28.2 µM [inhibitor, partial curve]. In the case of NS(=O)(=O)c1ccc(CCNC(=O)Nc2ccc(Cl)cc2)cc1, the Potency was inconclusive: 39.8 µM [inhibitor, single point]. With COc1ccc(C(=O)NC(=S)NNC(=O)c2c(-c3ccccc3)noc2C)cc1 the Potency was inconclusive: 39.8 µM [inhibitor, single point].

— PubChem BioAssay AID2147 (National Center for Advancing Translational Sciences (NCATS), 2009)
Further: nearly all actives have a fitted effect of over 50% in size.
Potency means the concentration at half of the fitted maximal effect; tags describe the fitted curve by direction and shape.
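Wherever activity change, negative = inhibition is given: 0% = wells with enzyme and -100% = buffer wells without enzyme.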
